Reference: PubChem BioAssay AID624296 (National Center for Advancing Translational Sciences (NCATS), 2012)
The whole screen tested about 350,000 compounds, of which about 9,900 (2.8%) were called active. The inconclusive results got no clear call from the source; some entries with a clear call stand among them for comparison. Calls follow the shape of the dose curve; as a rule, active = well fitted activation curve with a large enough effect; inconclusive = small, poorly fitted or top-dose-only effect; inactive = no such curve, though single readings can be large or run the other way. No potency is given beside an inconclusive call; the fits are too rough.

Test: A quantitative high throughput screen for small molecules that induce DNA re-replication in MCF 10a normal breast cells. Also: nearly all actives have a fitted effect of over 50% in size. As to activity, positive = re-replication: % of control where 0% means no effect.
Details: MCF 10A DNA re-replication, Hoechst nuclear intensity, 48 h; activity, positive = re-replication: at 46.1 µM (top of the series)
Potency is read from the fitted curve at half-maximal effect; tags tell the direction and shape of the fitted curve.

SMILES | Potency | activity, positive = re-replication
O=C(CSc1nnc(CN2CCCCC2)n1-c1ccccc1)c1ccc2c(c1)OCO2 | inconclusive [activator, partial curve, poor fit] | –
COc1ccccc1C(=O)NCC(=O)N/N=C/c1ccc2c(c1)OCO2 | inconclusive [activator, single point] | –
COc1cc(/C=N\NC(=O)c2ccc(-c3ccccc3)cc2)cc(OC)c1O | inconclusive [activator, single point] | –
Cc1ccc(-c2nc(CSc3nc4ccccc4c(=O)n3CCO)cs2)cc1 | inconclusive [activator, partial curve] | –
CN(C)CCC(c1ccc(Br)cc1)c1ccccn1 (stereo not drawn) | inconclusive [activator, partial curve, poor fit] | –
CCN1CCN(CCCNC(=O)c2cc3c(=O)[nH]c4ccccc4c3s2)CC1 | – | inactive: 0.918%
C[C@H](NC(=O)c1nc[nH]c1C(=O)NCc1ccc(CNC(=O)OC(C)(C)C)cc1)C(=O)OCc1ccccc1 | inconclusive [activator, single point] | –
O=C(N/N=C/c1cc(Br)c(O)c(Br)c1)c1cccc(C(F)(F)F)c1 | inconclusive [activator, single point] | –
C=C(C)CN(CC)Cc1c(C(=O)N(C)CCCC)nc2ccccn12 | – | inactive: -10.9%
COc1cc(OC)c2c(-c3cccc(-c4ccc(C(F)(F)F)cc4)c3)cc(=O)oc2c1 | inconclusive [activator, partial curve, poor fit] | –
COc1cccc(OC)c1C(=O)NC(=S)N1CCN(c2ccc(C(F)(F)F)cc2[N+](=O)[O-])CC1 | inconclusive [activator, single point] | –
O=C(CSc1ccccc1C(=O)N1CCN(c2ccccc2)CC1)N1CCCC1 | – | inactive: -0.963%
O=C1Nc2c(Cl)cc(Cl)cc2C1=O | inconclusive [activator, single point] | –
CCOc1ccc(-c2cccc(NC(=O)c3ccco3)c2)nn1 | – | inactive: 4.85%
CCCCCN(C(=O)CCC(=O)OC(C)C(=O)Nc1cccc(C#N)c1)c1c(N)n(CCCC)c(=O)[nH]c1=O (stereo not drawn) | inconclusive [activator, full curve, poor fit] | –
CC(C)(C)CC(=O)Nc1ccc(Nc2ccccc2)cc1 | inconclusive [activator, partial curve, poor fit] | –
NC(=O)c1c(NC(=O)COC(=O)c2ccc(O)c(Cl)c2)sc2c1CCCC2 | inconclusive [activator, single point] | –
CCOC(=O)C1CCN(C(=O)C2CCN(S(=O)(=O)c3ccc4ccccc4c3)CC2)CC1 | inconclusive [activator, partial curve, poor fit] | –
Cc1nn(C)c(C(=O)N/N=C/c2cc3c(cc2Br)OCO3)c1Br | inconclusive [activator, single point] | –
O=C(c1cnn2c1NC(c1ccc(Br)cc1)CC2C(F)(F)F)N1CCN2CCCC2C1 (stereo not drawn) | inconclusive [activator, partial curve, poor fit] | –
CC1CCc2nc(NC(=O)c3cc(C(C)(C)C)nn3C)sc2C1 (stereo not drawn) | inconclusive [activator, single point] | –
Cc1ccc(S(=O)(=O)Oc2ccccc2-c2ccccc2)cc1 | active: 11.6 µM | –
O=C(c1ccc2c(c1)[nH]c(=S)n1c3ccccc3nc21)N1CCN(c2cccc(Cl)c2)CC1 | inconclusive [activator, partial curve] | –

SMILES | Potency | activity, positive = re-replication
Cc1ccc(CNCC(=O)Nc2ccc(C)cc2Br)cc1 | inconclusive [activator, partial curve, poor fit] | –
Cc1sc(N/N=C/C=C/c2ccccc2)nc1-c1ccccc1 | inconclusive [activator, partial curve] | –
CC(C)C[C@H](NC(=O)c1[nH]cnc1C(=O)N[C@@H](Cc1ccccc1)C(=O)OCc1ccccc1)C(=O)OC(C)(C)C | – | inactive: -12.6%
O=C(CSc1ccc2ccccc2c1Br)Nc1cccc(S(=O)(=O)NC2=NCCCCC2)c1 | inconclusive [activator, single point] | –
CCOC(=O)c1cc2c(=O)n3ccccc3nc2n(C(C)C)c1=NC(=O)c1ccco1 | active: 7.31 µM | –
Cc1ccc(NS(=O)(=O)c2sc3ccc(Cl)cc3c2C)cc1 | inconclusive [activator, single point] | –
O=S(=O)(N/N=C/c1cn(Cc2ccccc2)c2ccccc12)c1ccccc1 | inconclusive [activator, partial curve, poor fit] | –
CS(=O)(=O)N1CCC(C(=O)Nc2ccccc2Sc2ccccc2)CC1 | – | inactive: 5.94%
COc1ccc2nc(N3CCCC(C(=O)NCCCN4CCN(C)CC4)C3)sc2c1 (stereo not drawn) | – | inactive: 0.412%
CCOC(=O)c1c(NC(=O)COC(=O)c2ccc([N+](=O)[O-])cc2)sc(C(=O)N(C)C)c1C | – | inactive: 10.1%
O=C(NC1CCCCC1)c1ccc(S(=O)(=O)c2ccccc2)cc1 | – | inactive: 0.0773%
CN(C)c1ccc(N/C=C/C(=O)C(C)(C)C)cc1 | inconclusive [activator, single point] | –
CC(C)(C)c1ccc(-c2nnc(NC(=O)c3ccccc3)s2)cc1 | inconclusive [activator, single point] | –
COc1cccc(NC(=O)CN(C)C(=O)C(Sc2ccccc2)c2ccccc2)c1 (stereo not drawn) | – | inactive: 0.53%
CC(C)=CCc1cc([C@@H]2CC(=O)c3ccc(O)c(CC=C(C)C)c3O2)ccc1O | inconclusive [activator, single point] | –
O=[N+]([O-])c1cc([N+](=O)[O-])c2cc3ccccc3nc2c1 | inconclusive [activator, single point] | –
NS(=O)(=O)c1ccc(CCNC(=O)CCCNC(=O)c2ccc(Cl)cc2)cc1 | – | inactive: 0.887%
CC(=O)NC(c1ccco1)c1ccc2cccnc2c1O (stereo not drawn) | inconclusive [activator, single point] | –
O=S(=O)(NCCC1=CCCCC1)c1cccc(Br)c1 | inconclusive [activator, single point] | –
Cc1ccccc1NC(=O)Cn1nc(-c2ccc(Cl)s2)ccc1=O | – | inactive: 12.5%
COc1ccc(C(=O)c2ccccc2)cc1Br | – | inactive: 1.56%
O=C(CCSc1nc(-c2ccc3c(c2)OCO3)cc(C(F)(F)F)n1)NCc1ccccc1 | inconclusive [activator, partial curve] | –
Cc1ccc(C(C)C)c(OCC(=O)Nc2cccc(S(=O)(=O)NC3=NCCCCC3)c2)c1 | inconclusive [activator, single point] | –

SMILES | Potency | activity, positive = re-replication
Cc1ccc(-c2nc(-c3ccncc3)no2)cc1 | – | inactive: -1.61%
COc1ccc2c(c1OC)C(=O)OC2Nc1nc(-c2ccc([N+](=O)[O-])cc2)cs1 (stereo not drawn) | – | inactive: 5.1%
Cc1cccc(N2CCN(S(=O)(=O)c3ccc4c(c3)CCC(=O)N4)CC2C)c1 (stereo not drawn) | inconclusive [activator, partial curve, poor fit] | –
CCc1sc(C(=O)N2CCc3ccccc32)cc1C | inconclusive [activator, single point] | –
O=Cc1cc2ccccc2nc1SCc1ccc(Cl)cc1 | inconclusive [activator, single point] | –
CCSc1ncc(Cl)c(C(=O)Nc2cc(C)ccc2C)n1 | inconclusive [activator, single point] | –
O=C(NCCc1ccc(C(F)(F)F)cc1)C1CC(=O)N(c2ccc3c(c2)OCCO3)C1 (stereo not drawn) | – | inactive: 24.1%
COc1cc2c(C(=O)O)c(C)n(-c3ccccc3)c2c2ccccc12 | inconclusive [activator, single point] | –
COc1ccccc1CNCC(O)Cn1c2ccccc2c2ccccc21 (stereo not drawn) | inconclusive [activator, single point] | –
O=c1c2cccc3c2c(nn1CN1CCOCC1)-c1ccccc1-3 | inconclusive [activator, partial curve] | –
CCn1c(SCC(=O)Nc2ccccc2C(=O)OC)nnc1-c1cccc(C)c1 | – | inactive: -25.2%
COc1cc2c(cc1OC)CN(C(=O)COc1ccccc1C#N)CC2 | – | inactive: 23.2%
C=CCCN([C@H](CO)Cc1ccccc1)S(=O)(=O)c1ccccc1Br | inconclusive [activator, single point] | –
CC1=C(C(=O)Nc2ccccn2)C(c2ccc(Cl)cc2Cl)NC(=S)N1 (stereo not drawn) | inconclusive [activator, single point] | –
COc1cc(C=NO)nc(-c2ccccn2)c1 | – | inactive: 7.91%
CN(C)CCCN(C(=O)c1ccc2c(c1)CCCC2)c1nc2cc3c(cc2s1)OCO3 | active: 16.4 µM | –
Cc1ccc(S(=O)(=O)N2C[C@@H]3[C@H]4CC[C@H](C4)[C@@H]3[C@@H](C)[C@H]2C#N)cc1 | inconclusive [activator, single point] | –
Cc1ccc(C(=O)NCc2ccc(Cl)cc2)cc1S(=O)(=O)N1CCCCC1 | – | inactive: 0.898%
CCC(CC)C(=O)Nc1cccc(C(=O)Nc2ccc(OC)cc2[N+](=O)[O-])c1 | inconclusive [activator, single point] | –
COc1cccc(OC)c1OC(=O)c1ccccc1 | – | inactive: -1.18%
CCC(C)Sc1cccc(-c2nc3ccc(C)cn3c2NCc2ccccc2)c1 (stereo not drawn) | active: 11.6 µM | –
CC(C)CC(NC(=O)c1ccc(Cl)cc1)C(=O)OCC(=O)c1ccc2c(c1)NC(=O)CO2 (stereo not drawn) | inconclusive [activator, full curve, poor fit] | –
